We go through 19 molecules from the supplement of paper PMC10369915.

To fix the notation:
B1: GATD3A_Y250_L248V (peptide)
chain: ETAVHYIHDGI
B2: GALT_Y339_Q344K (peptide)
chain: KFMVGYEMLAK
B3: GATA5_Y208_H207R (peptide)
chain: DGTGRYLCNAC
B4: GAMT_Y222_A224T_YF (peptide)
chain: PADCRYFTFPQ
B5: GAGE12J_Y9_Y9C (peptide)
chain: RGRSTCYWPRP
B6: GATA1_Y223_D218Y (peptide)
chain: YRTGHYLCNAC
B7: GAGE12J_Y10_Y9C (peptide)
chain: GRSTCYWPRPR
B8: GAPDH_Y255 (peptide)
chain: EKPAKYDDIKK
B9: GALNS_Y461_A459V (peptide)
chain: FASVEYQEALS
B10: GATA1_Y223_D218G (peptide)
chain: GRTGHYLCNAC
B11: GALNTL5_Y404 (peptide)
chain: KPGLKYVTYGN
B12: GATAD2B_Y317 (peptide)
chain: TSSAIYMNLAS
B13: GANC_Y43_Q44R (peptide)
chain: SKKSTYRALLD
B14: GAN_Y471_G474R (peptide)
chain: VAMELYVFRGV
B15: GALT_Y339_L342I (peptide)
chain: KFMVGYEMIAQ
B16: GATM_Y100_P105L (peptide)
chain: VKANTYEKYWL
B17: GALNTL5_Y404_YF (peptide)
chain: KPGLKYVTFGN
B18: GATA2_Y376_C373R (peptide)
chain: NARGLYYKLHN
B19: GALE_Y241 (peptide)
chain: TGVRDYIHVVD

This is one part of the list. No stated cut-off is given here; in the data, active = 3.2 or more and inactive = the rest. The signal is at background level for most entries.
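Further: displayed peptides selected on beads carrying the immobilized SH2 domain, with library peptides lacking any tyrosine serving as negative controls.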

The first experiment deals with SHP2 C-SH2 domain E139D. Kind of experiment: enrichment score (SH2-bound / input frequency) (ratio); bacterial display of known human phosphotyrosine sites (pTyr-Var adds point mutants) read by sequencing; higher = stronger binding; tyrosines were phosphorylated by kinases first. To be noted: peptide library: pTyr-Var.
On to B1, for which the enrichment score is inactive: 0.822.

Take B2: the enrichment score is inactive: 1.38.

Consider B3, for which the enrichment score is inactive: 0.575.

For B4, the enrichment score was inactive: 0.88.

On to B5, for which the enrichment score is inactive: 0.242.

For the molecule B6, the enrichment score is inactive: 1.77.

As for B7, the enrichment score is inactive: 0.239.

Consider B8, for which the enrichment score is inactive: 0.778.

As for B9, the enrichment score was inactive: 0.699.

For B10, the enrichment score is inactive: 1.35.

Take B11: the enrichment score is inactive: 1.42.

On to B12, for which the enrichment score was inactive: 2.66.

As to B13, the enrichment score was inactive: 0.699.

In the case of B14, the enrichment score was inactive: 1.35.

Regarding B15, the enrichment score was inactive: 1.52.

Take B16: the enrichment score was inactive: 0.963.

As to B17, the enrichment score is inactive: 1.5.

Take B18: the enrichment score was inactive: 1.27.

As to B19, the enrichment score is inactive: 1.03.

A further experiment addresses SHP2 C-SH2 domain wild-type. Described as above. To be noted: peptide library: pTyr-Var.
With B1, the enrichment score is inactive: 0.789.

Turning to B2, the enrichment score was inactive: 1.19.

With B3, the enrichment score was inactive: 0.527.

Take B4: the enrichment score is inactive: 0.969.

As to B5, the enrichment score was inactive: 0.297.

For the molecule B6, the enrichment score is inactive: 1.65.

Turning to B7, the enrichment score was inactive: 0.205.

For the molecule B8, the enrichment score was inactive: 0.685.

On to B9, for which the enrichment score is inactive: 0.711.

For B10, the enrichment score is inactive: 1.32.

Consider B11, for which the enrichment score was inactive: 1.19.

With B12, the enrichment score was inactive: 2.35.

In the case of B13, the enrichment score is inactive: 0.603.

With B14, the enrichment score was inactive: 1.38.

Consider B15, for which the enrichment score is inactive: 1.39.

Consider B16, for which the enrichment score was inactive: 0.928.

Turning to B17, the enrichment score is inactive: 1.55.

As to B18, the enrichment score is inactive: 1.11.

Turning to B19, the enrichment score is inactive: 0.891.

Another experiment deals with SHP2 N-SH2 domain L43F. The description is as above. The conditions noted are these: peptide library: pTyr-Var.
Take B1: the enrichment score is inactive: 0.811.

In the case of B2, the enrichment score is inactive: 1.24.

Turning to B3, the enrichment score is inactive: 0.529.

As for B4, the enrichment score is inactive: 0.825.

Turning to B5, the enrichment score is inactive: 0.276.

In the case of B6, the enrichment score is inactive: 1.59.

As to B7, the enrichment score was inactive: 0.183.

Regarding B8, the enrichment score is inactive: 0.682.

As to B9, the enrichment score was inactive: 0.708.

Consider B10, for which the enrichment score is inactive: 1.29.

For the molecule B11, the enrichment score is inactive: 1.88.

As for B12, the enrichment score is inactive: 2.31.

With B13, the enrichment score is inactive: 0.593.

B14: the enrichment score was inactive: 1.06.

On to B15, for which the enrichment score was inactive: 1.32.

Take B16: the enrichment score was inactive: 0.857.

For B17, the enrichment score is inactive: 2.78.

As to B18, the enrichment score is inactive: 1.11.

Regarding B19, the enrichment score is inactive: 0.918.

The next experiment deals with SHP2 N-SH2 domain T42A. The experiment is described as above. The conditions noted are these: peptide library: pTyr-Var.
On to B1, for which the enrichment score was inactive: 0.787.

On to B2, for which the enrichment score is inactive: 1.28.

Take B3: the enrichment score was inactive: 0.488.

As to B4, the enrichment score was inactive: 1.09.

For the molecule B5, the enrichment score is inactive: 0.234.

For the molecule B6, the enrichment score is inactive: 1.27.

On to B7, for which the enrichment score is inactive: 0.227.

B8: the enrichment score is inactive: 0.734.

B9: the enrichment score is inactive: 0.749.

As for B10, the enrichment score is inactive: 1.25.

For B11, the enrichment score is inactive: 1.76.

Turning to B12, the enrichment score is inactive: 2.33.

Consider B13, for which the enrichment score is inactive: 0.582.

Turning to B14, the enrichment score is inactive: 1.19.

With B15, the enrichment score is inactive: 1.54.

In the case of B16, the enrichment score is inactive: 0.623.

For B17, the enrichment score is inactive: 2.94.

As for B18, the enrichment score was inactive: 1.1.

Take B19: the enrichment score is inactive: 0.688.

The next experiment has as its target SHP2 N-SH2 domain T52S. Described as above. The conditions noted are these: peptide library: pTyr-Var.
For the molecule B1, the enrichment score was inactive: 0.657.

As for B2, the enrichment score is inactive: 1.24.

On to B3, for which the enrichment score is inactive: 0.73.

As to B4, the enrichment score was inactive: 1.13.

B5: the enrichment score was inactive: 0.251.

With B6, the enrichment score was inactive: 1.75.

As for B7, the enrichment score was inactive: 0.231.

B8: the enrichment score was inactive: 0.536.

B9: the enrichment score is inactive: 0.745.

For B10, the enrichment score was inactive: 1.1.

Turning to B11, the enrichment score is inactive: 1.74.

On to B12, for which the enrichment score is inactive: 2.52.

Turning to B13, the enrichment score was inactive: 0.535.

For B14, the enrichment score was inactive: 1.05.

For B15, the enrichment score is inactive: 1.79.

Take B16: the enrichment score was inactive: 0.909.

With B17, the enrichment score is inactive: 3.06.

In the case of B18, the enrichment score is inactive: 1.21.

Take B19: the enrichment score was inactive: 0.737.

Another experiment concerns the target SHP2 N-SH2 domain wild-type. Described as above. The conditions noted are these: peptide library: pTyr-Var.
As to B1, the enrichment score is inactive: 0.863.

As to B2, the enrichment score is inactive: 1.21.

For B3, the enrichment score is inactive: 0.697.

B4: the enrichment score is inactive: 1.02.

As for B5, the enrichment score was inactive: 0.479.

Turning to B6, the enrichment score was inactive: 1.25.

For B7, the enrichment score was inactive: 0.238.

With B8, the enrichment score was inactive: 0.88.

Regarding B9, the enrichment score is inactive: 0.691.

On to B10, for which the enrichment score was inactive: 1.38.

B11: the enrichment score is inactive: 1.26.

Take B12: the enrichment score is inactive: 2.19.

With B13, the enrichment score is inactive: 0.586.

Consider B14, for which the enrichment score was inactive: 1.2.

As to B15, the enrichment score is inactive: 1.22.

In the case of B16, the enrichment score is inactive: 0.995.

In the case of B17, the enrichment score was inactive: 1.76.

For B18, the enrichment score was inactive: 1.44.

For B19, the enrichment score is inactive: 0.936.
